According to article PMC4336329 (PLoS ONE, 2015):
Out of some 310,000 compounds screened, about 14,000 (4.5%) showed an effect of 50% or more. Effects have a minus sign here. This is one part of the list.

Biological target: human ether-à-go-go-related gene (hERG) potassium channel (human, UniProt Q12809)
Test: primary screen, population patch clamp on CHO cells stably expressing hERG
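Also: peak tail current of the secondary pulse compared with the same well before compound.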

Sequence of human ether-à-go-go-related gene (hERG) potassium channel (Q12809 whole entry, looked up): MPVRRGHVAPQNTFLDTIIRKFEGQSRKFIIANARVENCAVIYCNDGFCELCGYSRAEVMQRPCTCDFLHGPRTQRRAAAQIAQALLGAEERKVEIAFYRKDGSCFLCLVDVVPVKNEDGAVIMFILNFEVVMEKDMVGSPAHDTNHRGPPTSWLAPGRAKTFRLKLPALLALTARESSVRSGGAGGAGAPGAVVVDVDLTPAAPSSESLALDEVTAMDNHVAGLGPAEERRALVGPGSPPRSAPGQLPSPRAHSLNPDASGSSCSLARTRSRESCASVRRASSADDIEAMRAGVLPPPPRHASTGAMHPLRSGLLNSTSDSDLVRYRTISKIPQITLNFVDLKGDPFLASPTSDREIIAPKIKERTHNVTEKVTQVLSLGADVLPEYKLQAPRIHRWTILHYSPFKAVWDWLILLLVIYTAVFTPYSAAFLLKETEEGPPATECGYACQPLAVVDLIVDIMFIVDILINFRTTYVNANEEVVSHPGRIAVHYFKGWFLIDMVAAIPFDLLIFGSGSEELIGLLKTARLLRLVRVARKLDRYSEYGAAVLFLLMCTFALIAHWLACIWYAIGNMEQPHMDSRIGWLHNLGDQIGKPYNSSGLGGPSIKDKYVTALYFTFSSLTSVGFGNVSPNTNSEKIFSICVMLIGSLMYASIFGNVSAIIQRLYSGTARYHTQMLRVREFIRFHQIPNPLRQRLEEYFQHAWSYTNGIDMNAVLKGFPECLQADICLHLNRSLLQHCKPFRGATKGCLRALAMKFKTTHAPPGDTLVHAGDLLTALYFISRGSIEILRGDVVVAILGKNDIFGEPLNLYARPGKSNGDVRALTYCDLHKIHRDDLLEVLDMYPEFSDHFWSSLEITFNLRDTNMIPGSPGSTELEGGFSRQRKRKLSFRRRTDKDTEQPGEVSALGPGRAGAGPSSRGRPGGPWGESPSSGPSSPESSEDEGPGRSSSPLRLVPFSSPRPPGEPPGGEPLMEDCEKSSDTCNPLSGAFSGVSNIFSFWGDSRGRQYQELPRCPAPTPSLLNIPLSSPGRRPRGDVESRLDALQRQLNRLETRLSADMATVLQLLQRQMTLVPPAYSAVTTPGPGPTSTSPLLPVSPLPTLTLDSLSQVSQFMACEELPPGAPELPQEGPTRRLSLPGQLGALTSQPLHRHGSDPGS

Row | Structure (SMILES) | hERG current change (%, negative = inhibition) at 10uM
1 | CCC(=O)c1ccc(-c2ccccc2)cc1 | 9.31%
2 | CSc1nnc(-c2ccc(Cl)cc2Cl)o1 | 1.62%
3 | Cc1ccc(S(=O)(=O)c2c(C)nn(C(C)(C)C)c2OC(=O)C2CCCC2)cc1 | -4.21%
4 | COc1cccc(-n2nnnc2SCC(=O)NCCc2ccccc2)c1 | -20.8%
5 | O=C1C(C23CC4CC(CC(C4)C2)C3)C(=O)N(c2ccccc2)N1c1ccccc1 | -8.29%
6 | CCCCNc1cc(F)nc(N)n1 | -9.45%
7 | COc1ccc(CCNC(=O)COc2ccc(S(=O)(=O)N3CCOCC3)cc2C)cc1 | -22.8%
8 | Cc1ccc(S(=O)(=O)N2CCOCC2)cc1C(=O)OCc1nnc(-c2ccccc2)o1 | -42.1%
9 | C/C(=N\NC(=S)NCCc1ccccc1)c1ccc(Cl)cc1 | 14.3%
10 | COc1cc2c(c(OC)c1OC)-c1ccc(C(=O)O)cc1[C@@H](NC(C)=O)CC2 | 2.46%
11 | Cn1c(=O)c2c(ncn2CC(COCc2ccccc2)OCc2ccccc2)n(C)c1=O (stereo not drawn) | -12.1%
12 | COc1cc(OC)cc(C(=O)Nc2nc(-c3ccccc3)c(-c3ccccc3)o2)c1 | 12.3%
13 | CCOC(=O)Cc1nnc(NC(=O)CSc2nc3ccccc3[nH]2)s1 | 5.14%
14 | Cc1ccc(S(=O)(=O)N2CCCC2C(=O)OCc2ccco2)cc1 (stereo not drawn) | -27.8%
15 | O=C(Cn1cccc1C(=O)c1ccccc1)NCc1ccc2c(c1)OCO2 | -2.12%
16 | CCOC(=O)[C@H]1[C@H]2COc3cc(OC)ccc3[C@@H]2N2C(=O)c3cc(C)ccc3NC(=O)[C@@]12C | 2.3%
17 | Cl.Nc1ncnc2c1CCC2 | 8.69%
18 | O=C(CC(c1ccccc1)c1cc(Br)ccc1O)NCc1ccco1 (stereo not drawn) | -20%
19 | O=C(Nc1nccs1)c1cc(-c2ccco2)nc2ccccc12 | 3.14%
20 | Cc1ccc(C(OCCN(C)C)c2cccc(C(F)(F)F)c2)cc1.O=C(O)/C=C\C(=O)O (stereo not drawn) | -58.6%
21 | Cc1ccccc1OCC(=O)OC(C)C(=O)NC1CCCC1 (stereo not drawn) | 2.04%
22 | CCOc1ccc2c(c1)C(c1ccc(C)cc1)=NNC(c1ccc(C)cc1)=N2 | -16.6%
23 | O=C(Nc1ccccc1C(F)(F)F)N1CCCC1c1cccnc1 (stereo not drawn) | 15.2%

Row | Structure (SMILES) | hERG current change (%, negative = inhibition) at 10uM
24 | CN1C(CC(=O)Nc2ccc(Br)cc2)c2ccccc2CC1(C)C (stereo not drawn) | -38.2%
25 | CC(=O)c1sc(NC(=O)c2cnc(Cl)c(Cl)c2)nc1C | 13.3%
26 | C/C(=N/NC(=O)c1cccc(N2CCCC2=O)c1)c1ccc(Br)cc1 | -3.22%
27 | CCCCn1nc(C(=O)NCc2ccccc2CN2CCCC2)c2ccccc2c1=O | -64.6%
28 | COc1cc(/C=N/Nc2ccc(S(N)(=O)=O)cc2[N+](=O)[O-])cc(OC)c1O | 11.6%
29 | C=CCSc1nc2ccccc2c(=O)n1Cc1ccccc1 | -4.88%
30 | COc1cccc(/C=N/N2CCOCC2)c1O | 9.22%
31 | CC(C)[C@H](NC(=O)Nc1ccccc1F)C(=O)O | 13.1%
32 | CCOC(=O)c1c(CN2CCOCC2)n(-c2ccccc2)c2ccc(O)cc12 | -69.2%
33 | Cc1ccc(C(=O)N/C(=C/c2ccccc2)C(=O)NCc2ccncc2)cc1 | -65.2%
34 | CCOC(=O)c1nn(-c2ccc(F)cc2)c(=O)cc1OCC(=O)Nc1cccc(C)c1 | 4.46%
35 | COc1cccc(CN(C)CC(=O)NCc2ccccc2Cl)c1 | -5.14%
36 | COc1ccc(OC)c(NC2c3ncccc3C(=O)N2Cc2ccco2)c1 (stereo not drawn) | -12.1%
37 | CSc1nc2ccc(NC(=O)CSc3nnc(N)s3)cc2s1 | -7.51%
38 | Cc1cccc(-n2c(CNC(=O)Cc3ccccc3)n[nH]c2=S)c1 | 20%
39 | CN(C)CCCN(C(=O)COc1ccccc1)c1nc2ccc(F)cc2s1.Cl | -68%
40 | CC(C)Cc1ccc(/C=C/C(=O)NC2CC2)cc1 | -8.98%
41 | O=C(CSc1nc(-c2ccccc2)c(-c2ccccc2)o1)NC1CCS(=O)(=O)C1 (stereo not drawn) | -27.1%
42 | COc1ccc(NC(=O)C2CCN(S(=O)(=O)c3c(C)noc3/C=C/N(C)C)CC2)cc1 | -15.3%
43 | O=C(COC(=O)c1ccc(S(=O)(=O)N2CCCC2)cc1)NCc1ccco1 | -10.1%
44 | COc1ccc(CCn2c(C)cc3c(c2=O)C(c2ccc4c(c2)OCO4)C(C#N)=C(N)O3)cc1OC (stereo not drawn) | -4.13%
45 | CCc1cccc(CC)c1NC(=O)CSc1nnc(C(C)C)n1CC | 7.06%
46 | Cc1ccc(NC(=O)C/C(N)=N/OC(=O)c2ccccc2)cc1 | 42.8%

Row | Structure (SMILES) | hERG current change (%, negative = inhibition) at 10uM
47 | O=C(NCC1CCCO1)c1ccc(Cl)c(S(=O)(=O)N2CCCCC2)c1 (stereo not drawn) | -37.2%
48 | Cc1cc(Cl)c2oc(C(=O)N(C)Cc3ccon3)c(C)c2c1 | 0.492%
49 | CCOC(=O)c1sc(=NC(=O)c2ccc(C)cc2)n(C)c1C | 13.8%
50 | CCCNC(=O)c1ccc(N2CCC3(CC2)CC(c2ccccc2)=NO3)c(NC(=O)c2cccc(OC)c2)c1 | -68.6%
51 | Cc1cccc(N2CC34C=CC(O3)C(C(=O)O)C4C2=O)c1 (stereo not drawn) | 4.25%
52 | COc1n[nH]c(C(=O)Nc2cc(Cl)ccc2Cl)c1[N+](=O)[O-] | 17.9%
53 | O=C(O)c1cc(NC(=O)c2ccco2)cc(NC(=O)c2ccco2)c1 | 18.4%
54 | C(=NC12CN3CN(CN(C3)C1)C2)c1cccnc1 | 5.88%
55 | COc1ccc(C(=O)CCc2ccccc2)c(O)c1 | 18.6%
56 | COCCn1c(SCC(=O)Nc2nc(C)cs2)nnc1C(C)C | 10.2%
57 | COC(=O)c1ccc2c(c1)NC(=O)c1ccccc1S2 | 14.7%
58 | CC(C)CCNc1nc(N)c([N+](=O)[O-])c(NCC2CCCO2)n1 (stereo not drawn) | -7.67%
59 | COc1ccc(NC(=O)c2ccc(C(=O)Nc3ccc(OC)cc3OC)cc2)c(OC)c1 | 12.2%
60 | COc1ccc(N2CC(C(=O)Nc3cc(C)on3)CC2=O)cc1 (stereo not drawn) | 9.44%
61 | O=C(CN1C(=O)c2cccnc2Oc2ccc(Cl)cc21)NCCC1=CCCCC1 | 10.3%
62 | O=C(Nc1cccnc1Cl)c1ccc(S(=O)(=O)N2CCCCCC2)cc1 | -8.39%
63 | COC(=O)Nc1nnc(/C=C/c2ccccc2)s1 | 0.8%
64 | Cc1ccc(S(=O)(=O)N2CCOC2CNC(=O)C(=O)NCCc2ccccc2)cc1 (stereo not drawn) | -25.6%
65 | COc1ccccc1OCCC(=O)OCC(=O)NCc1ccc(Cl)cc1 | -2.19%
66 | COc1ccc2oc(C(=O)OCC(=O)N(CC(C)C)c3c(N)n(Cc4ccccc4)c(=O)[nH]c3=O)c(C)c2c1 | -10.8%
67 | S=c1[nH]nc(-c2ccco2)n1/N=C/c1ccc(Cl)c(Cl)c1 | 18.9%
68 | O=C(NCc1cccc2ccccc12)c1cccs1 | 9.75%
69 | CCC(=O)NCc1c(Cl)cccc1-n1cccc1 | -17%

Row | Structure (SMILES) | hERG current change (%, negative = inhibition) at 10uM
70 | O=C(CN1CCN(Cc2ccc(F)cc2)CC1)Nc1ccccc1F | -35.2%
71 | COCCN(C(=O)c1cccc(N2C(=O)CCC2=O)c1)c1nc(-c2ccc([N+](=O)[O-])cc2)cs1 | -50.2%
72 | Cc1cc(C)cc(NC(=O)N2CCCN(Cc3c(F)cccc3Cl)CC2)c1 | -47.2%
73 | Cc1cc(OCC(=O)Nc2ccncc2)ccc1Br | 15.5%
74 | CCOC(=O)c1c(C)[nH]c(C(=O)COC(=O)c2ccc(O)cc2)c1C | 5.46%
75 | COc1ccc2oc(-c3ccccc3)c(C(N)=O)c2c1 | 10.3%
76 | COc1cc(OC)c(C(=O)NC2CCCCCC2)cc1OC | -3.27%
77 | COc1cccc(/C=C/C(=O)OCC(=O)NCCc2ccccc2)c1 | 10.9%
78 | Cc1cnc(NC(=O)CCCNC(=O)c2ccc(Cl)cc2)s1 | 12.8%
79 | Cc1ccc(NC2(C#N)C(=O)Nc3ccccc32)cc1C (stereo not drawn) | -0.0165%
80 | O=C(COC(=O)c1ccccc1C(=O)c1ccc(Cl)cc1)NCC1CCCO1 (stereo not drawn) | 1.96%
81 | CCN(CC)C(=O)CSc1nc2ccccc2c(=O)n1OC | -7.23%
82 | COC(=O)c1ccc2[nH]c(C)cc(=O)c2c1 | -0.139%
83 | Cc1ccc(C)c(S(=O)(=O)Nc2ccc3cn[nH]c3c2)c1 | 1.86%
84 | CCOc1cc2[nH]c(=S)n(CC3CCCO3)c(=O)c2cc1OCC (stereo not drawn) | -6.67%
85 | Cc1ccnc(NC(=S)N2CCN(c3cccc(C(F)(F)F)c3)CC2)c1 | 3.32%
86 | CCCN1CCC[C@@H]2Cc3nc(N)ncc3C[C@H]21.Cl | -16.9%
87 | COc1ccc(-c2csc3ncnc(N4CCN(S(=O)(=O)c5cccc(F)c5)CC4)c23)cc1 | -3.5%
88 | C=CCNc1sc(C(=O)C(C)(C)C)c(N)c1C#N | 5.11%
89 | Clc1cccc(-c2nnc3n2CCCCC3)c1 | 21%
90 | COc1cccc(/C=C2\Oc3cc(OCC(=O)N4Cc5ccccc5C[C@H]4C(=O)O)ccc3C2=O)c1 | 12.6%
